Measurements published in PMC9911399, “Two distinct binding modes provide the RNA-binding protein RbFox with extraordinary sequence specificity”.
Positions count from the first letter of the chain named. The list shows a part of the results.

B1: UGUAGGU (DNA:RNA)
RNA: GGGAGACCGGAAUUCAGAUUGUCCUGUAGGUUUAAAUCCCGUCGUAGCCACCA
DNA 1: CAATCTGAATTCCGGTCTCCC
DNA 2: TGGTGGCTACGACGGGATT
B2: GUCUCAC (DNA:RNA)
RNA: GGGAGACCGGAAUUCAGAUUGUCCGUCUCACUUAAAUCCCGUCGUAGCCACCA
DNA 1: CAATCTGAATTCCGGTCTCCC
DNA 2: TGGTGGCTACGACGGGATT
B3: ACUCGCC (DNA:RNA)
RNA: B1 RNA with U25A, G26C, A28C, G30C, U31C
DNA 1: CAATCTGAATTCCGGTCTCCC
DNA 2: TGGTGGCTACGACGGGATT
B4: UAAAUCG (DNA:RNA)
RNA: B1 RNA with G26A, U27A, G29U, G30C, U31G
DNA 1: CAATCTGAATTCCGGTCTCCC
DNA 2: TGGTGGCTACGACGGGATT
B5: UGCACAU (DNA:RNA)
RNA: B1 RNA with U27C, G29C, G30A
DNA 1: CAATCTGAATTCCGGTCTCCC
DNA 2: TGGTGGCTACGACGGGATT
B6: UUAUUGU (DNA:RNA)
RNA: B1 RNA with G26U, U27A, A28U, G29U
DNA 1: CAATCTGAATTCCGGTCTCCC
DNA 2: TGGTGGCTACGACGGGATT
B7: UGAAUAG (DNA:RNA)
RNA: B1 RNA with U27A, G29U, G30A, U31G
DNA 1: CAATCTGAATTCCGGTCTCCC
DNA 2: TGGTGGCTACGACGGGATT
B8: GGCCGAA (DNA:RNA)
RNA: B2 RNA with U26G, U28C, C29G, C31A
DNA 1: CAATCTGAATTCCGGTCTCCC
DNA 2: TGGTGGCTACGACGGGATT
B9: UUGUCGA (DNA:RNA)
RNA: B2 RNA with G25U, C27G, A30G, C31A
DNA 1: CAATCTGAATTCCGGTCTCCC
DNA 2: TGGTGGCTACGACGGGATT
B10: UCUGCCA (DNA:RNA)
RNA: B1 RNA with G26C, A28G, G29C, G30C, U31A
DNA 1: CAATCTGAATTCCGGTCTCCC
DNA 2: TGGTGGCTACGACGGGATT
B11: UACCCCA (DNA:RNA)
RNA: B2 RNA with G25U, U26A, U28C, A30C, C31A
DNA 1: CAATCTGAATTCCGGTCTCCC
DNA 2: TGGTGGCTACGACGGGATT
B12: UCUGUUA (DNA:RNA)
RNA: B1 RNA with G26C, A28G, G29U, G30U, U31A
DNA 1: CAATCTGAATTCCGGTCTCCC
DNA 2: TGGTGGCTACGACGGGATT
B13: AUAUCAG (DNA:RNA)
RNA: B2 RNA with G25A, C27A, C31G
DNA 1: CAATCTGAATTCCGGTCTCCC
DNA 2: TGGTGGCTACGACGGGATT
B14: CCAGGUC (DNA:RNA)
RNA: B2 RNA with G25C, U26C, C27A, U28G, C29G, A30U
DNA 1: CAATCTGAATTCCGGTCTCCC
DNA 2: TGGTGGCTACGACGGGATT
B15: GAUGGCC (DNA:RNA)
RNA: B2 RNA with U26A, C27U, U28G, C29G, A30C
DNA 1: CAATCTGAATTCCGGTCTCCC
DNA 2: TGGTGGCTACGACGGGATT
B16: UCGGUAC (DNA:RNA)
RNA: B2 RNA with G25U, U26C, C27G, U28G, C29U
DNA 1: CAATCTGAATTCCGGTCTCCC
DNA 2: TGGTGGCTACGACGGGATT
B17: UGAGGAG (DNA:RNA)
RNA: B1 RNA with U27A, A28G, G30A, U31G
DNA 1: CAATCTGAATTCCGGTCTCCC
DNA 2: TGGTGGCTACGACGGGATT
B18: GUCGAAC (DNA:RNA)
RNA: B2 RNA with U28G, C29A
DNA 1: CAATCTGAATTCCGGTCTCCC
DNA 2: TGGTGGCTACGACGGGATT
B19: GGGCAGC (DNA:RNA)
RNA: B2 RNA with U26G, C27G, U28C, C29A, A30G
DNA 1: CAATCTGAATTCCGGTCTCCC
DNA 2: TGGTGGCTACGACGGGATT
B20: CAGUCUA (DNA:RNA)
RNA: B2 RNA with G25C, U26A, C27G, A30U, C31A
DNA 1: CAATCTGAATTCCGGTCTCCC
DNA 2: TGGTGGCTACGACGGGATT

molecular target: T1, RBFOX1 RRM RbFoxmut (Fox-RRM*) (Homo sapiens, UniProt Q9NWB1 109-208, R118D;E147R;N151S;E152T); assay: EMSA; HiTS-Eq, 1 nM pool, 10 min; buffer printed only for the single-RNA assays: 10 mM Tris pH 7.5, 150 mM NaCl, 3.4 mM EDTA, 0.001% NP-40, 30 C; details: tags: His6 N-terminal (pET28a); label: 5' 32P
T1 sequence: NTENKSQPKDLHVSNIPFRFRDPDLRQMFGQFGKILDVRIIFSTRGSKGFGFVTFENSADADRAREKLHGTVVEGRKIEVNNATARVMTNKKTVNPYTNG
Summary of the method: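 A pool of RNA with 7 randomized nucleotides, 5′-radiolabelled and with DNA-annealed flanks, was equilibrated at 1 nM for 10 min in 50 µL with purified RbFox RRM, wild type or mutant, across increasing protein concentrations. Free RNA was separated by 8% native PAGE, excised, reverse-transcribed, barcoded by PCR and sequenced. Relative association constants were obtained from read-count changes of each RNA species versus the control reaction and normalised to the cognate motif.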

Binder	binding signal
B1	0.126 KA relative to UGCAUGU
B2	0.0695 KA relative to UGCAUGU
B3	0.0934 KA relative to UGCAUGU
B4	0.0677 KA relative to UGCAUGU
B5	0.0893 KA relative to UGCAUGU
B6	0.158 KA relative to UGCAUGU
B7	0.0871 KA relative to UGCAUGU
B8	0.066 KA relative to UGCAUGU
B9	0.102 KA relative to UGCAUGU
B10	0.0841 KA relative to UGCAUGU
B11	0.0775 KA relative to UGCAUGU
B12	0.112 KA relative to UGCAUGU
B13	0.0949 KA relative to UGCAUGU
B14	0.107 KA relative to UGCAUGU
B15	0.151 KA relative to UGCAUGU
B16	0.0961 KA relative to UGCAUGU
B17	0.105 KA relative to UGCAUGU
B18	0.07 KA relative to UGCAUGU
B19	0.0841 KA relative to UGCAUGU
B20	0.0907 KA relative to UGCAUGU
